# This is one part of the list.
# Assays:
# Test in all cases: glycan array binding signal (z-score within array); higher = stronger binding
# Conditions in all cases: glycan notation: IUPAC condensed, linker removed
# [1] = target: Gal(b1-4)GlcNAc(b1-6)Gal(b1-4)GlcNAc
# Summary of the method: (§1)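 Arrays were curated from the Consortium for Functional Glycomics database, 3228 in total, and kept only where the protein sequence was available. Binding is expressed as a within-array Z-score. This score was averaged across arrays of the same protein sequence at different concentrations or buffers and across linkers, and negative values can be read as non-binding.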
# [2] = target: Gal(b1-4)GlcNAc(b1-6)Gal(b1-4)GlcNAc(b1-6)GalNAc
# Summary of the method: as §1
# [3] = target: Gal(b1-4)GlcNAc(b1-6)GalNAc
# Summary of the method: as §1
# [4] = target: Gal(b1-4)GlcNAc(b1-6)[Gal(b1-3)]GalNAc
# Summary of the method: as §1
# [5] = target: Gal(b1-6)Gal
# Summary of the method: as §1
# [6] = target: Gal3S(b1-3)GalNAc
# Summary of the method: as §1
# [7] = target: Gal3S(b1-3)GlcNAc
# Summary of the method: as §1
# [8] = target: Gal3S(b1-3)[Fuc(a1-4)]GlcNAc
# Summary of the method: as §1
# [9] = target: Gal3S(b1-4)Glc
# Summary of the method: as §1
# [10] = target: Gal3S(b1-4)Glc6S
# Summary of the method: as §1
# [11] = target: Gal3S(b1-4)GlcNAc
# Summary of the method: as §1
# [12] = target: Gal3S(b1-4)GlcNAc6S
# Summary of the method: as §1
# [13] = target: Gal3S(b1-4)[Fuc(a1-3)]Glc
# Summary of the method: as §1
# [14] = target: Gal3S(b1-4)[Fuc(a1-3)]Glc6S
# Summary of the method: as §1
# [15] = target: Gal3S4S(b1-4)GlcNAc
# Summary of the method: as §1
# [16] = target: Gal3S6S(b1-4)GlcNAc
# Summary of the method: as §1
# [17] = target: Gal3S6S(b1-4)GlcNAc6S
# Summary of the method: as §1
# [18] = target: Gal4S(b1-4)GlcNAc
# Summary of the method: as §1
# [19] = target: Gal4S6S(b1-4)GlcNAc
# Summary of the method: as §1
# [20] = target: Gal6S(b1-3)GlcNAc
# Summary of the method: as §1
# [21] = target: Gal6S(b1-3)GlcNAc6S
# Summary of the method: as §1
# [22] = target: Gal6S(b1-4)Glc
# Summary of the method: as §1
# [23] = target: Gal6S(b1-4)Glc6S
# Summary of the method: as §1
# [24] = target: Gal6S(b1-4)GlcNAc
# Summary of the method: as §1
# [25] = target: Gal6S(b1-4)GlcNAc6S
# Summary of the method: as §1
# [26] = target: GalNAc(a1-3)Gal
# Summary of the method: as §1
# [27] = target: GalNAc(a1-3)GalNAc
# Summary of the method: as §1
# [28] = target: GalNAc(a1-3)GalNAc(a1-3)Gal(a1-4)Gal(b1-4)GlcNAc
# Summary of the method: as §1
# [29] = target: GalNAc(a1-3)GalNAc(b1-3)Gal(a1-4)Gal(b1-4)Glc
# Summary of the method: as §1
# [30] = target: GalNAc(b1-3)Gal
# Summary of the method: as §1
# [31] = target: GalNAc(b1-3)Gal(a1-4)Gal(b1-4)GlcNAc
# Summary of the method: as §1
# [32] = target: GalNAc(b1-3)Gal(a1-4)Gal(b1-4)GlcNAc(b1-3)Gal(b1-4)Glc
# Summary of the method: as §1
# [33] = target: GalNAc(b1-3)Gal(a1-6)Gal(b1-4)Glc
# Summary of the method: as §1
# [34] = target: GalNAc(b1-3)GalNAc
# Summary of the method: as §1
# [35] = target: GalNAc(b1-4)GlcNAc
# Summary of the method: as §1
# [36] = target: GalNAc(b1-4)GlcNAc(b1-2)Man(a1-3)[GalNAc(b1-4)GlcNAc(b1-2)Man(a1-6)]Man(b1-4)GlcNAc(b1-4)GlcNAc
# Summary of the method: as §1
# [37] = target: GalNAc(b1-6)GalNAc
# Summary of the method: as §1
# [38] = target: Glc(a1-4)Glc
# Summary of the method: as §1
# [39] = target: Glc(a1-6)Glc(a1-6)Glc
# Summary of the method: as §1
# [40] = target: Glc(b1-4)Glc
# Summary of the method: as §1
# [41] = target: Glc(b1-6)Glc
# Summary of the method: as §1
# [42] = target: GlcA(b1-3)Gal
# Summary of the method: as §1
# [43] = target: GlcA(b1-3)GlcNAc
# Summary of the method: as §1
# [44] = target: GlcA(b1-6)Gal
# Summary of the method: as §1
# [45] = target: GlcNAc(a1-3)Gal(b1-4)GlcNAc
# Summary of the method: as §1
binder,measurement,setting,value
"LSectin (Mus musculus), Q8BNX1 (protein) MNTGEYNKLGSAIEEVSRGQLGRWECYKQRLFFLVLALLVATVLWALILSTLLSSASSKLRVLLSHQDLLRTNASEQKMTLSSLKDDIGACRNCCSVTKAQLQTTLAEFKDIQAKLMEQESILKELQERVTQDLAKASRDRENIRSELFQALEAVKRQNSSCEQCPPSWLPFQGSCYYFSETQATWDTAQSYCGGQGAHLVIVRGLNEQGFLSQHTRGRGYWLGLRAVRHLNKIQGYRWVDGASLNFSHWNSGEPNDSRGHEDCIMMLHSGLWNDAPCTNERDGWICEKRSSCY",glycan array binding signal (z-score),[1],-0.156
same,glycan array binding signal (z-score),[2],-0.153
same,glycan array binding signal (z-score),[3],-0.15
same,glycan array binding signal (z-score),[4],-0.175
same,glycan array binding signal (z-score),[5],-0.188
same,glycan array binding signal (z-score),[6],-0.163
same,glycan array binding signal (z-score),[7],-0.159
same,glycan array binding signal (z-score),[8],2.46
same,glycan array binding signal (z-score),[9],-0.156
same,glycan array binding signal (z-score),[10],0.457
same,glycan array binding signal (z-score),[11],-0.175
same,glycan array binding signal (z-score),[12],-0.164
same,glycan array binding signal (z-score),[13],-0.148
same,glycan array binding signal (z-score),[14],-0.167
same,glycan array binding signal (z-score),[15],-0.155
same,glycan array binding signal (z-score),[16],-0.17
same,glycan array binding signal (z-score),[17],-0.152
same,glycan array binding signal (z-score),[18],-0.174
same,glycan array binding signal (z-score),[19],-0.164
same,glycan array binding signal (z-score),[20],-0.188
same,glycan array binding signal (z-score),[21],-0.185
same,glycan array binding signal (z-score),[22],-0.168
same,glycan array binding signal (z-score),[23],-0.151
same,glycan array binding signal (z-score),[24],-0.138
same,glycan array binding signal (z-score),[25],-0.135
same,glycan array binding signal (z-score),[26],-0.123
same,glycan array binding signal (z-score),[27],-0.164
same,glycan array binding signal (z-score),[28],-0.19
same,glycan array binding signal (z-score),[29],-0.191
same,glycan array binding signal (z-score),[30],-0.158
same,glycan array binding signal (z-score),[31],-0.139
same,glycan array binding signal (z-score),[32],-0.189
same,glycan array binding signal (z-score),[33],-0.185
same,glycan array binding signal (z-score),[34],-0.146
same,glycan array binding signal (z-score),[35],-0.18
same,glycan array binding signal (z-score),[36],-0.18
same,glycan array binding signal (z-score),[37],-0.184
same,glycan array binding signal (z-score),[38],-0.16
same,glycan array binding signal (z-score),[39],-0.168
same,glycan array binding signal (z-score),[40],-0.17
same,glycan array binding signal (z-score),[41],-0.188
same,glycan array binding signal (z-score),[42],-0.169
same,glycan array binding signal (z-score),[43],-0.085
same,glycan array binding signal (z-score),[44],-0.171
same,glycan array binding signal (z-score),[45],-0.14

# — the supplement of paper PMC8728848
